In ChEMBL document CHEMBL4888484, “Replenishing the malaria drug discovery pipeline: Screening and hit evaluation of the MMV Hit Generation Library 1 (HGL1) against asexual blood stage Plasmodium falciparum ,using a nano luciferase reporter read-out” (2022):
Several values for one entry are separate records, joined by “and”; a condition that tells them apart may be missing. Equal values may be shown once. Among all 150,000 compounds or so, about 540 (0.36%) showed an effect of 50% or more. The list shows a part of the results.

Tested on: Plasmodium falciparum
Experiment: Primary screen in NF54 nanoGlo assay, in single point, at 2uM, 72h; a lower Z score goes with more inhibition
Format: functional, Erythrocyte
Conditions: timepoint 72 hour

Row | Structure (SMILES) | % Inhibition [%] | Z score | % Inhibition (2 µM)
1 | Cc1ccc(C(=O)NCCn2c(C)cnc2C2CCOCC2)s1 | -1 | 0.13 | 
2 | COC(=O)[C@H]1CC[C@@H](NC(=O)Nc2ccc(F)cc2OC(F)F)C1 | -4 | 0.67 | 
3 | Cn1c(=O)c(C(=O)N2CCN(C(c3ccccc3)c3ccccc3)CC2)cc2cccnc21 | -16 | 2.04 | 
4 | OCc1csc(CNc2ccc3oc(C4CC4)nc3c2)n1 | -14 | 1.61 | 
5 | CCn1c(-c2cc(C)oc2C)nnc1N1CCCN(C(C)=O)CC1 | -15 | 2.89 | 
6 | COc1ccc(C)cc1NC(=O)Cn1cnc2c(nc3n2CCCCC3)c1=O | -3 | 0.54 | 
7 | O=C(NC[C@@H](CO)Cc1ccccn1)c1ccc(F)c(S(=O)(=O)N2CCC2)c1 | -14 | 2.48 | 
8 | O=C(OCc1nnnn1-c1ccccc1)[C@@H]1Cc2cc(Cl)ccc2O1 | -1 | 0.15 | 
9 | COCCc1noc([C@H]2CCC(=O)N(Cc3ccccc3OC)C2)n1 | -4 | 0.67 | 
10 | Cc1ccc([C@H](CCO)NC(=O)C2(N3CCCC3)CCCCC2)cc1 | -2 | 0.38 | 
11 | O=C(CCCN1CCCC1=O)NCC[C@H]1CCCOC1 | -2 | 0.3 | 
12 | CCOC(=O)CNC(=O)NCc1ccc2c(c1)CCN2C(=O)CC | -7 | 1.29 | 
13 | COc1c[nH]c(C(=O)N2CCO[C@H](c3ccccc3)C2)cc1=O |  |  | -17% and -1%
14 | CCCS(=O)(=O)CC(=O)Nc1cccc(F)c1C | -3 | 0.42 | 
15 | CCC(Nc1ncnc2c1cnn2C)C1CCCCO1 (centres undefined) | -6 | 1.1 | 
16 | COc1cc(-c2ncc(C(=O)NCc3ccccn3)c(N(C)Cc3ccccc3)n2)cc(OC)c1OC | -4 | 0.51 | 
17 | COc1ccc(Cl)cc1NC(=O)C[C@H]1CCCCN(C)C1=O | -15 | 2.94 | 
18 | CCC(=O)N1CCCc2cc(S(=O)(=O)N3CCC(C(=O)Nc4cccc(Cl)c4)CC3)ccc21 | 3 | -0.38 | 
19 | CCC1COC(C)CN1Cc1cc(C)on1 (centres undefined) | -2 | 0.25 | 
20 | CCc1nc(C)c(CNC(=O)CC[C@@H]2CCCN3CCCC[C@H]23)s1 | -5 | 0.76 | 
21 | C[C@H](NCc1c(C(=O)N2CCCCCCC2)nc2ccc(Cl)cn12)c1ccc(F)cc1 | 12 | -1.58 | 
22 | N#Cc1ccc(N2CCC[C@H](C(N)=O)C2)cn1 | -8 | 1.21 | 
23 | CN1CCN(C(=O)CCc2cccnc2)CC1 | 1 | -0.11 | 
24 | O=C(Nc1ccc2c(c1)CCC2)[C@H]1CNC[C@@H](C(=O)N2CCCC2)C1 | -4 | 0.47 | 
25 | CCCCn1c(=O)[nH]c2c(C(=O)N3CCC(C)CC3)snc2c1=O | -14 | 2.22 | 
26 | CC(C)(Oc1ccc2c(c1)CCC2)C(=O)N[C@@H]1C[C@H]2OCC[C@@H]12 | -19 | 2.11 | 
27 | Cc1ccc(C)n1-c1c(C(=O)NCc2ccc(N(C)C)cc2)sc2ncccc12 | -9 | 0.86 | 
28 | Cc1occc1C(=O)N1CCO[C@H](C(=O)NCCc2ccccn2)C1 | -12 | 1.55 | 

Row | Structure (SMILES) | % Inhibition [%] | Z score | % Inhibition (2 µM)
29 | CCc1cc(NCC2(OC)CCOCC2)nc(CC)n1 | 5 | -0.67 | 
30 | CCOC1CC(NC(=O)C2CC2C)C12CCC2 (centres undefined) | -11 | 1.55 | 
31 | O=C(c1csc(=O)[nH]1)N1CCOCC12CCC2 | -10 | 1.39 | 
32 | Cc1ccc(-c2ccc(OC(=O)c3cnc(C)cn3)cc2)cc1 | -6 | 0.91 | 
33 | CCCCc1noc(CNC(C)C(C)n2cccn2)n1 (centres undefined) | -4 | 0.68 | 
34 | C[C@H]1CS(=O)(=O)C[C@H]1NC(=O)c1ccc(C(F)(F)F)c(=O)[nH]1 | -8 | 1.07 | 
35 | Cc1cc(C(=O)N2CCN(c3cc(N4CCOCC4)ncn3)CC2)co1 | 4 | -0.44 | 
36 | C=CCn1cc(CN2CCN(Cc3ncc[nH]3)[C@H]3CS(=O)(=O)C[C@H]32)cn1 | -7 | 1 | 
37 | CC(C)N(C[C@H]1CCC(=O)N1)C(=O)c1cn(C(c2ccccc2)c2ccccc2)nn1 | -1 | 0.1 | 
38 | COc1nc(C)nc(NCc2c(C)noc2C)c1C | 28 | -3.57 | 
39 | CCCc1cc(C(=O)N2CCC3(CC2)C(=O)N(C)c2ccccc23)no1 | -7 | 0.92 | 
40 | CC(C)N1CCO[C@@H](CC(=O)NCc2csc(N)n2)C1 | -10 | 1.25 | 
41 | Cc1ccc(S(=O)(=O)N2CCC(c3nc(C(=O)N(C)C)c(C)o3)CC2)c(C)c1 | -1 | 0.16 | 
42 | CC(C)c1nnsc1CN(C)C[C@H]1CCCCO1 | 3 | -0.54 | 
43 | CCOc1cnc(C(=O)N2CCC3(CC2)NC(=O)[C@H](C)O3)cn1 | 3 | -0.61 | 
44 | CN(C)[C@H]1CCN(c2c(C#N)cccc2C#N)C1 | 11 | -1.35 | 
45 | Cc1nonc1Cc1ncnn1CC(F)(F)F | -8 | 1.55 | 
46 | O=C(CC1CCCC1)NC1CCCCC1 | -6 | 0.79 | 
47 | Cc1nc(-c2cccs2)sc1C(=O)Nc1ccc2[nH]c(=O)[nH]c2c1 | 13 | -1.48 | 
48 | Cc1cc(C)n(-c2ccc(CCNC(=O)[C@@H]3CCCO3)cc2)n1 | -5 | 0.61 | 
49 | CCC12OC3C(O)C4CC3C1C4C(=O)N2c1ccccc1OC (centres undefined) | -24 | 2.22 | 
50 | CN(c1ccc(F)cc1)S(=O)(=O)c1ccc2c(c1)C(=O)Nc1ccccc1O2 | -16 | 2.3 | 
51 | Cc1cccc(C(C)NCCC(C)O)c1C (centres undefined) | 3 | -0.3 | 
52 | CC(C)c1ccc(O)c(C(=O)NCC(=O)NCC(F)(F)F)c1 | -5 | 0.68 | 
53 | c1ccc2c3c(ccc2c1)OCN(c1ccc2c(c1)OCCO2)C3 | -7 | 0.97 | 
54 | Cc1ccc2c(c1)CCCN2C(=O)c1cnn(-c2ccncc2)c1C | -4 | 0.55 | 
55 | CC[C@H](C)CN(CC(=O)N1CCN(c2ccc(-c3cccc(OC)c3)nn2)CC1)C(=O)c1cccc(F)c1 | -3 | 0.44 | 
